Measurements reported in patent publication EP0393640B1, “A monoclonal antibody recognizing C-terminus of ANP” (SHIONOGI SEIYAKU KABUSHIKI KAISHA trading under the name of …, priority 1989, dated 1990).
Not every detail of the peptide structures is certain; ends, links or a residue may be inferred. Some entries repeat one wording, which the source may state once for all of them. Bridge positions count the residues as written; N and C are the ends. Ends that are not written are not given here. Peptide text beside a SMILES is read from it. I, II: the chains in the order shown.

Assays:
Assay type in all cases: binding, mouse
[1] = tested on: AN111; assay: Cross-reactivity of ANP-related polypeptides in the α-hANP radioimmunoassay with AN111; settings: for reactivity with the monoclonal antibody (in words): AN111, statement refers to Table 1; for Cross-reactivity (%) AN111: α-hANP radioimmunoassay, ascitic fluid AN111A
Protocol: (§1) Using peptide and peptide fragment relating to α-hANP as a sample in α-hANP radioimmunoassay to be described in Example 5, cross reactivity was measured. It was confirmed that both of AN111 and AN117 recognize the C-terminus of α-hANP. Table 1 Assay buffer solution : 0.1 M phosphate buffer solution (pH 7.0) containing 0.372 g of disodium ethylenediamine tetraacetate, 0.063 g of cystine dihydrochloride, 0.262 g of ε-aminocaproic acid, 0.1g of sodium azide and 1 g of bovine serum albumin per liter. Dilute ascitic fluid : A[…] 110,000-fold diluted with Assay buffer solution or A[…] 62,000-fold diluted with Assay buffer solution. α-hANP standard : α-hANP serially two-fold diluted at a range of concentrations from 3.13 ng/ml to 100 ng/ml. 125 I -labelled α-hANP : 125I-labelled α-hANP (Amersham) diluted with Assay buffer solution up to approximately 3.7 KBq/ml. 1 % Bovine gamma globulin : dissolved in Assay buffer solution 37.5 % Polyethylene glycol : polyethylene glycol 6000 dissolved in Assay buffer solution without bovine serum albumin To a tube charged with 100 »l of α-hANP standard or a sample, 100 »l of 125I-labelled α-hANP, 100 »l of dilute ascitic fluid and 200 »l of 1 % bovine gamma globulin were added and the mixture was incubated overnight at 4 °C. Immediately after 250 »l of 37.5 % polyethylene glycol cooled to 4 °C is added thereto, the resulting mixture is agitated for 15 seconds and then centrifuged at 4 °C at 3000 rpm for 20 min. After removing the supernatant, the radioactivity of the precipitate is measured by a gamma counter (Aloka, ARC-600 type)

[2] = tested on: AN117; assay: Cross-reactivity of ANP-related polypeptides in the α-hANP radioimmunoassay with AN117; settings: for reactivity with the monoclonal antibody (in words): AN117, statement refers to Table 1; for Cross-reactivity (%) AN117: α-hANP radioimmunoassay, ascitic fluid AN117A
Protocol: as §1

[3] = tested on: AN111 as an immobilized antibody, ¹²⁵I-labelled KY-ANP-I; assay: Cross-reactivity of ANP-related peptides in the sandwich radioimmunoassay (one-step); settings: for Cross-Reactivity (Molar %): one-step assay, AN111 immobilized on beads, ¹²⁵I-labelled KY-ANP-I
From the text: Anti-α-ANP [17-28] monoclonal antibody produced by the above hybridoma clone AN111 or AN117 (the antibody is hereinafter referred to as AN111 or AN117) which was immobilized on beads was used as an immobilized antibody. As a labelled antibody, anti-α-hANP [1 -28] monoclonal antibody produced by hybridoma clone KY-ANP-I (ECACC 87082001, EP-A-0 306 309) (the antibody is hereinafter referred to as KY-ANP-I) which was labelled with 125I was used. By the above antibodies, a sandwich radioimmunoassay of α-hANP was established. In 0.05 M phosphate buffer (pH 7.4) containing the IgG fraction (100 »g/ml) of A[…] or A[…] prepared in Item 1 above are immersed polystyrene beads (Ichico, 3.2 mm diameter) and allowed to stand at 4 °C for 20 hr. After sufficiently washing the beads with RIA buffer solution (0.1 M phosphate buffer solution of pH 7.0 containing 0.1 % bovine serum albumin (crystal, Sigma, hereinafter referred to as BSA), 1 mM disodium ethylenediamine tetraacetate (hereinafter referred to as EDTA), 0.2 mM cystine and 0.1 % sodium azide), the beads were stored in the same buffer solution at 4 °C. With 10 »g of the IgG fraction of KY-ANP-I prepared in Item 1 above were mixed 50 »l of 0.5 M phosphate buffer solution (pH 7.5) and 0.5 mCi of Na125I (Amersham). To the mixture was added 10 »l of 0.2 % chloramine T solution and agitated for 30 sec. After 10 »l of 1 % sodium metabisulfite was mixed therewith, 10 »l of 10 % potassium iodide and 10 »l of 1 % BSA solution was added to the mixture, followed by a gel-filtration (Sephadex G-25® (Fine, Pharmacia) : 0.9 × 25 cm, 0.1 M phosphate buffer solution of pH 7.4) to give 300 »Ci of 125I-labelled antibody. One piece of the antibody-immobilized beads prepared in Item 2 above was placed in a polystyrene tube, to which were added 50 »l of α-hANP standard solution (10 - 2,000 pg/ml) or a human plasma sample and 100 »l of 125 I -labelled antibody solution (1.8 × 10^6 dpm/ml) and incubated at 4 °C for 24 hr. After sucking the supernatant, the bead was washed 3 times with 1 ml of the washing solution. Radioactivity of 125 I -labelled antibody bound to the solid phase was measured by a gamma counter. A standard curve was prepared by plotting a concentration of α-hANP standard at abscissa and the measured radioactivity at ordinate. An ANP concentration in plasma was calculated by applying the radioactivity from the plasma sample to the standard curve. The following results are from the one-step assay using AN111 as an immobilized antibody, unless otherwise defined. […] Cross-reactivity to ANP lacking the C-terminus such as α-hANP [7-27] and α-rANP was not observed.

| Compound | reactivity with the monoclonal antibody (in words) [1] | Cross-reactivity (%) AN111 [1] [%] | reactivity with the monoclonal antibody (in words) [2] | Cross-reactivity (%) AN117 [2] [%] | Cross-Reactivity (Molar %) [3] [Molar %] | Cross-reactivity (in words) ([3]; sandwich radioimmunoassay, Figure 3 and Table 2) |
| --- | --- | --- | --- | --- | --- | --- |
| CC(C)C[C@H](N)C(=O)NCC(=O)N[C@@H](CSSC[C@H](NC(=O)CNC(=O)[C@@H](N)CC(C)C)C(=O)N[C@@H](CC(N)=O)C(=O)N[C@@H](CO)C(=O)N[C@@H](Cc1ccccc1)C(=O)O)C(=O)N[C@@H](CC(N)=O)C(=O)N[C@@H](CO)C(=O)N[C@@H](Cc1ccccc1)C(=O)O [α-hANP[21-26] dimer] (I: H-LGCNSF-OH / II: H-LGCNSF-OH; disulfide I:3-II:3) | scarcely react | <0.2 | scarcely react | <0.2 |  |  |
| N=C(N)NCCC[C@H](NC(=O)[C@H](Cc1ccccc1)NC(=O)[C@H](CO)NC(=O)[C@H](CC(N)=O)NC(=O)[C@@H](N)CSSC[C@H](N)C(=O)N[C@@H](CC(N)=O)C(=O)N[C@@H](CO)C(=O)N[C@@H](Cc1ccccc1)C(=O)N[C@@H](CCCNC(=N)N)C(=O)N[C@@H](Cc1ccc(O)cc1)C(=O)O)C(=O)N[C@@H](Cc1ccc(O)cc1)C(=O)O [α-hANP[23-28] dimer] (I: H-CNSFRY-OH / II: H-CNSFRY-OH; disulfide I:1-II:1) |  | 228 |  | 221 |  |  |
| CC[C@H](C)[C@@H]1NC(=O)[C@H](CCCNC(=N)N)NC(=O)[C@H](CC(=O)O)NC(=O)[C@H](CCSC)NC(=O)[C@H](CCCNC(=N)N)NC(=O)CNC(=O)CNC(=O)[C@H](Cc2ccccc2)NC(=O)[C@@H](N)CSSC[C@@H](C(=O)N[C@@H](CC(N)=O)C(=O)N[C@@H](CO)C(=O)N[C@@H](Cc2ccccc2)C(=O)N[C@@H](CCCNC(=N)N)C(=O)N[C@@H](Cc2ccc(O)cc2)C(=O)O)NC(=O)CNC(=O)[C@H](CC(C)C)NC(=O)CNC(=O)[C@H](CO)NC(=O)[C@H](CCC(N)=O)NC(=O)[C@H](C)NC(=O)CNC1=O [α-hANP[7-28]] (H-CFGGRMDRIGAQSGLGCNSFRY-OH; disulfide 1-17) |  | 61 |  | 60 | 64 |  |
| CC(C)C[C@H](NC(=O)CNC(=O)[C@H](CO)NC(=O)[C@H](CCC(N)=O)NC(=O)[C@H](C)N)C(=O)NCC(=O)N[C@@H](CSSC[C@H](NC(=O)CNC(=O)[C@H](CC(C)C)NC(=O)CNC(=O)[C@H](CO)NC(=O)[C@H](CCC(N)=O)NC(=O)[C@H](C)N)C(=O)N[C@@H](CC(N)=O)C(=O)N[C@@H](CO)C(=O)N[C@@H](Cc1ccccc1)C(=O)N[C@@H](CCCNC(=N)N)C(=O)N[C@@H](Cc1ccc(O)cc1)C(=O)O)C(=O)N[C@@H](CC(N)=O)C(=O)N[C@@H](CO)C(=O)N[C@@H](Cc1ccccc1)C(=O)N[C@@H](CCCNC(=N)N)C(=O)N[C@@H](Cc1ccc(O)cc1)C(=O)O [α-hANP[17-28] dimer] (I: H-AQSGLGCNSFRY-OH / II: H-AQSGLGCNSFRY-OH; disulfide I:7-II:7) |  |  |  |  | <0.01 |  |
| CC[C@H](C)[C@@H]1NC(=O)[C@H](CCCNC(=N)N)NC(=O)[C@H](CC(=O)O)NC(=O)[C@H](CCSC)NC(=O)[C@H](CCCNC(=N)N)NC(=O)CNC(=O)CNC(=O)[C@H](Cc2ccccc2)NC(=O)[C@@H](N)CSSC[C@@H](C(=O)N[C@@H](CC(N)=O)C(=O)N[C@@H](CO)C(=O)N[C@@H](Cc2ccccc2)C(=O)N[C@@H](CCCNC(=N)N)C(=O)O)NC(=O)CNC(=O)[C@H](CC(C)C)NC(=O)CNC(=O)[C@H](CO)NC(=O)[C@H](CCC(N)=O)NC(=O)[C@H](C)NC(=O)CNC1=O [α-hANP[7-27]] (H-CFGGRMDRIGAQSGLGCNSFR-OH; disulfide 1-17) | scarcely react | <0.2 | scarcely react | <0.2 | <0.01 | not observed |
| CC[C@H](C)[C@@H]1NC(=O)[C@H](CCCNC(=N)N)NC(=O)[C@H](CC(=O)O)NC(=O)[C@H](CCSC)NC(=O)[C@H](CCCNC(=N)N)NC(=O)CNC(=O)CNC(=O)[C@H](Cc2ccccc2)NC(=O)[C@@H](NC(=O)[C@H](CO)NC(=O)[C@H](CO)NC(=O)[C@H](CCCNC(=N)N)NC(=O)[C@H](CCCNC(=N)N)NC(=O)[C@H](CC(C)C)NC(=O)[C@@H](N)CO)CSSC[C@@H](C(=O)N[C@@H](CC(N)=O)C(=O)N[C@@H](CO)C(=O)N[C@@H](Cc2ccccc2)C(=O)N[C@@H](CCCNC(=N)N)C(=O)N[C@@H](Cc2ccc(O)cc2)C(=O)O)NC(=O)CNC(=O)[C@H](CC(C)C)NC(=O)CNC(=O)[C@H](CO)NC(=O)[C@H](CCC(N)=O)NC(=O)[C@H](C)NC(=O)CNC1=O [α-hANP] |  | 100 |  | 100 | 100 |  |
| C[C@H](N)C(=O)N[C@@H](CCC(N)=O)C(=O)N[C@@H](CO)C(=O)NCC(=O)O [α-hANP[17-20]] (H-AQSG-OH) | scarcely react | <0.2 | scarcely react | <0.2 |  |  |
| AQSGLG [α-hANP[17-22]] | scarcely react | <0.2 | scarcely react | <0.2 |  |  |
| AQSGLGCNSFRY [α-hANP[17-28]] |  | 115 |  | 113 | <0.01 |  |
